Data reported in the supplement of paper PMC3334620.
In all, about 33,000 sequences were measured (“E-score (-0.5 to 0.5)”: median about -0.036, highest 2% from about 0.37 on). Some of the results follow.

target: T1, Yer064c (UniProt P40041); test: PBM E-score (8-mer binding enrichment) (E-score (-0.5 to 0.5)); higher = stronger / more preferred TF binding; most listed sequences are background and not binding sites; details: protein concentration: 200 nM; construct: GST-full length
T1 sequence: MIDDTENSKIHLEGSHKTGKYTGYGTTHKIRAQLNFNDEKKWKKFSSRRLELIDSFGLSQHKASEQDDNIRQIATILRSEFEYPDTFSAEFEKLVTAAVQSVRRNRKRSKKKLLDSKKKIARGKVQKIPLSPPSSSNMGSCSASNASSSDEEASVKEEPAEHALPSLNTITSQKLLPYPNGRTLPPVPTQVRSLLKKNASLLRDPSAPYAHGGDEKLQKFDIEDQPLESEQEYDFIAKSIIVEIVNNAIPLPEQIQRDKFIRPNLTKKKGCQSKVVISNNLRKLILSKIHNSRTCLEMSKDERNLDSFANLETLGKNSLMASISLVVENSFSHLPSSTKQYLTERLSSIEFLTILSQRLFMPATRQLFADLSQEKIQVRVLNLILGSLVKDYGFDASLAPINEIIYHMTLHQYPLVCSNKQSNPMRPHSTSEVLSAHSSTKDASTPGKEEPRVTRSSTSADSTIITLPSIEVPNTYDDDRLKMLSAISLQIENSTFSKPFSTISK
How it was run: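 The E-score, a modified Wilcoxon-Mann-Whitney statistic, was computed by the Universal PBM Analysis Suite for every ungapped eight-base word pooled with its reverse complement. Scans behind it were normalised with masliner after bound GST-tagged yeast transcription factors were detected with fluorescent anti-GST. The proteins, at about 100-200 nM, had been applied to universal all-10-mer Agilent arrays made double-stranded by primer extension.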

Sequence	PBM E-score
AAGATTTA	0.136
CAATGTAA	-0.13
CAAGTGAG	0.0765
AATAGAGT	0.0996
TAAAACGA	0.146
ATGTACCC	-0.101
ACAACCAG	0.032
AGCAGGGA	-0.0138
AAAACCGA	-0.00557
CCTGAAGA	0.0145
GAACGACC	0.0228
TCATGACA	0.248
ATTAATCA	0.441
TCCCGTCA	-0.0314
CGCGATGA	0.205
AATCGAGG	-0.00165
AATGTCTG	-0.144
CTCCACAG	-0.0508
CAGCAGAA	-0.111
CCTGCGAA	-0.056
GCGTCGAA	-0.138
CCCATCCC	-0.0882
CTAACTAG	0.184
AACATGAG	0.23
ATGGCAAA	-0.101

Sequence	PBM E-score
AAACATCC	-0.00356
CTACACGA	0.148
AATGTATC	0.0947
AGAAGAAC	-0.146
CGCATGAA	-0.00295
AGGCACAT	-0.117
CACACACA	0.0437
ATGTAGCG	-0.143
ACCTCTCG	-0.306
AGGCAGTG	-0.0727
ATAGAGGA	-0.0557
ACCGGCCA	-0.214
GAGATCCC	-0.174
AGGCCGCC	-0.165
ACCTCAGA	-0.112
GAGATAAA	-0.0124
AATGGATC	-0.0133
AGTCACAT	0.469
TGTGGTAA	-0.0274
CGTTAAGA	0.0746
TAATCGGA	0.163
ATCCTCGA	0.0481
CTCACAAC	0.143
AACCGGAC	-0.148
CGCGAGAG	-0.16

Sequence	PBM E-score
ACGGAAAA	-0.047
ATGGTCAC	0.0768
ATCCCAGA	-0.207
TCTATGAA	0.0776
CCAAAACA	-0.0588
CCACAGAG	-0.00502
GGCTGCAA	-0.0494
ACCTGCCA	-0.26
TGCTTCAA	-0.0458
ACATTCCA	-0.0571
CAATTTCG	-0.209
ACTAATCA	0.403
AATGGAAG	-0.0716
CTGCCGAA	-0.0478
ACGACATC	-0.208
CACTACCC	0.00286
ACTGGCGA	0.0456
CCTGGAAG	-0.1
ACACCGAG	0.0581
CAGGATCG	-0.0528
ACTAGCGC	0.103
CCCGGAAA	-0.0462
AAAGAGAG	-0.148
CATAAGGA	-0.0677
AGTCATCC	0.49

Sequence	PBM E-score
GCGCGTAC	-0.116
CAGCCCGG	-0.255
AGGCTCTA	-0.236
CCCATCGG	0.0685
CTCCGACA	0.00959
ACTCTTGG	0.186
ATCGCTCC	-0.163
TCAAGAGA	-0.0143
TCATATCA	0.209
CCATCCAC	-0.194
CCGCAACG	-0.112
ATTATCAA	0.14
AACTGATC	0.12
ATAGGGTG	-0.106
GTTGGATA	0.0253
ACTATGAC	0.372
ATTTGTCG	-0.0532
ACGAACTG	-0.0432
AAATTACG	-0.0646
AGGGATGC	-0.32
ACGTAAGT	0.199
AAGCCTTG	-0.0941
ACCTTGAA	0.0165
CCGGAGCC	-0.343
ATACGATA	0.106

Sequence	PBM E-score
GCCTGGCC	-0.291
CCTATCCA	-0.147
GACTATGC	0.397
TCACATCA	0.118
CCTCATGA	0.16
AGGGCTAT	-0.329
ACCTAGTC	0.33
TACACGAA	0.0233
ATCCGTTG	-0.037
GACCACCC	-0.22
ATGGATGA	0.106
CAAGAGGG	-0.217
TACGGGAA	-0.214
AGGAGTTA	-0.00713
CGGGAGAA	-0.141
AACGTATG	-0.0964
ACCACCCG	-0.0525
AGATGATG	0.149
ACCCCAGT	-0.0149
CAGGAAGG	-0.154
CTTCCATA	0.0346
CAGGTAGA	-0.164
GTCGTTTA	0.153
GGGGGGCA	-0.143
GGCCGTTA	-0.278

Sequence	PBM E-score
ACGGGCTG	-0.127
AGTTAACG	0.097
GGCTAGCC	-0.234
TGACCCCA	-0.0339
CAGTCTAA	0.0864
TCGGTAGA	0.1
AAAATCTT	0.157
AGAGGGAG	-0.0371
CTTAGACC	0.0119
ACAGTGAG	0.123
ACCGGCAC	0.0231
GCTCACTA	0.102
AATTACCT	0.0151
CTTAGCTC	-0.0993
GGGCATTA	-0.171
CCTTCCAC	-0.274
CCTCTTCC	-0.321
ACTTGTAC	0.0162
ATGGTAGC	-0.214
GACGAACC	-0.0385
GCCCAGTA	-0.183
TACCCTCA	-0.121
AGGGGCTC	-0.298
CCAGCGCA	-0.168
AAGGTACC	-0.198

Sequence	PBM E-score
GTTACAAA	0.134
CGCGGTTC	-0.0489
TAAGCGTA	-0.0328
AGGAGGCG	-0.337
GAGGCACA	-0.0696
CTATATAG	-0.02
AGCCTGCA	-0.0726
ATTGCCGA	-0.0492
AGAATGGA	-0.0129
CTTCCCCA	-0.129
CCAATTTA	0.0761
AACGCCTC	-0.31
CCAGTAAC	-0.0881
CTAAAGTA	-0.0185
GGTGTACA	-0.139
ACAACCTC	-0.278
ACCCGTAG	-0.131
CGCTTATC	-0.0597
CAGGGGCG	-0.244
ATCGCAAG	0.0475
CTGTGTGA	0.114
CATTGCGG	0.00493
